Measured values: the supplement of paper PMC12230231
± gives the standard deviation of the averaged measurements. Restriction of a single-cycle SIVsab GFP reporter by TRIM5α v1-loop variants in CRFK cells. Human variants: read share among cells still uninfected after two challenges over input, higher = gained restriction. Rhesus variants: share among infected cells over input, higher = lost restriction. Reporter dose not given per row. No active / inactive call per row; the paper calls a change when both replicates lie above its controls (mean + 2 SD of stop or wild-type variants, or the top frameshift score). Residues outside the varied loop are taken from Swiss-Prot. The paper reads the human single-substitution scores as noise; they and the rhesus combinations repeat poorly (rank correlation 0.3 to 0.4), indel scores repeat only for the top variants, rhesus substitutions well (0.9).

test system: SIVsab (simian immunodeficiency virus of sabaeus monkeys), single-cycle GFP reporter, in CRFK cells; assay: enrichment among uninfected cells over input (fold); higher = stronger restriction; conditions: library: human / rhesus combinations
Protocol: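 Pools of CRFK cells expressing variants of the TRIM5α v1 loop were challenged with the single-cycle reporter, sorted by GFP and sequenced; mean of two replicates.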

| Sequence | enrichment |
| --- | --- |
| MASGILVNVKEEVTCPICLELLTQPLSLDCGHSFCQACLTANHKKSMLDKGESSCPVCRISYQPENIRPNRHVANIVEKLREVKLSPEGQKVDHCARHGEKLLLFCQEDGKVICWLCERSQEHRGHHTFLTEEVAREYQVKLQAALEMLRQKQQEAEELEADIREEKASWKTQIQYDKTNVLADFEQLRDILDWEESNELQNLEKEEEDILKSLTNSETEMVQQTQSLRELISDLEHRLQGSVMELLQGVDGVIKRTENVTLKKPETFPKNQRRVFRAPDLKGMLEVFRELTDVRRYWVDVTVAPNNISCAVISEDKRQVSSPKPQIIYQAPGTRFTFPTLTNFNYCTGILGSQSITSGKHYWEVDVSKKTAWILGVCAGFQPDAMCNIEKNENYQPKYGYWVIGLEEGVKCSAFQDSSFHTPSVPFIVPLSVIICPDRVGVFLDYEACTVSFFNITNHGFLIYKFSHCSFSQPVFPYLNPRKCGVPMTLCSPSS [human TRIM5α, 330-340 = QAPGTRFTFPTLT] | 7.19 ± 3.9 |
| MASGILVNVKEEVTCPICLELLTQPLSLDCGHSFCQACLTANHKKSMLDKGESSCPVCRISYQPENIRPNRHVANIVEKLREVKLSPEGQKVDHCARHGEKLLLFCQEDGKVICWLCERSQEHRGHHTFLTEEVAREYQVKLQAALEMLRQKQQEAEELEADIREEKASWKTQIQYDKTNVLADFEQLRDILDWEESNELQNLEKEEEDILKSLTNSETEMVQQTQSLRELISDLEHRLQGSVMELLQGVDGVIKRTENVTLKKPETFPKNQRRVFRAPDLKGMLEVFRELTDVRRYWVDVTVAPNNISCAVISEDKRQVSSPKPQIIYQARGTRFTFPTFTNFNYCTGILGSQSITSGKHYWEVDVSKKTAWILGVCAGFQPDAMCNIEKNENYQPKYGYWVIGLEEGVKCSAFQDSSFHTPSVPFIVPLSVIICPDRVGVFLDYEACTVSFFNITNHGFLIYKFSHCSFSQPVFPYLNPRKCGVPMTLCSPSS [human TRIM5α, 330-340 = QARGTRFTFPTFT] | 0.116 ± 0.057 |
| MASGILVNVKEEVTCPICLELLTQPLSLDCGHSFCQACLTANHKKSMLDKGESSCPVCRISYQPENIRPNRHVANIVEKLREVKLSPEGQKVDHCARHGEKLLLFCQEDGKVICWLCERSQEHRGHHTFLTEEVAREYQVKLQAALEMLRQKQQEAEELEADIREEKASWKTQIQYDKTNVLADFEQLRDILDWEESNELQNLEKEEEDILKSLTNSETEMVQQTQSLRELISDLEHRLQGSVMELLQGVDGVIKRTENVTLKKPETFPKNQRRVFRAPDLKGMLEVFRELTDVRRYWVDVTVAPNNISCAVISEDKRQVSSPKPQIIYQARGTRFTFQTFTNFNYCTGILGSQSITSGKHYWEVDVSKKTAWILGVCAGFQPDAMCNIEKNENYQPKYGYWVIGLEEGVKCSAFQDSSFHTPSVPFIVPLSVIICPDRVGVFLDYEACTVSFFNITNHGFLIYKFSHCSFSQPVFPYLNPRKCGVPMTLCSPSS [human TRIM5α, 330-340 = QARGTRFTFQTFT] | 1.84 ± 0.28 |
| MASGILVNVKEEVTCPICLELLTQPLSLDCGHSFCQACLTANHKKSMLDKGESSCPVCRISYQPENIRPNRHVANIVEKLREVKLSPEGQKVDHCARHGEKLLLFCQEDGKVICWLCERSQEHRGHHTFLTEEVAREYQVKLQAALEMLRQKQQEAEELEADIREEKASWKTQIQYDKTNVLADFEQLRDILDWEESNELQNLEKEEEDILKSLTNSETEMVQQTQSLRELISDLEHRLQGSVMELLQGVDGVIKRTENVTLKKPETFPKNQRRVFRAPDLKGMLEVFRELTDVRRYWVDVTVAPNNISCAVISEDKRQVSSPKPQIIYQARGTLYTFQSLVNFNYCTGILGSQSITSGKHYWEVDVSKKTAWILGVCAGFQPDAMCNIEKNENYQPKYGYWVIGLEEGVKCSAFQDSSFHTPSVPFIVPLSVIICPDRVGVFLDYEACTVSFFNITNHGFLIYKFSHCSFSQPVFPYLNPRKCGVPMTLCSPSS [human TRIM5α, 330-340 = QARGTLYTFQSLV] | 0.214 ± 0.035 |
| MASGILVNVKEEVTCPICLELLTQPLSLDCGHSFCQACLTANHKKSMLDKGESSCPVCRISYQPENIRPNRHVANIVEKLREVKLSPEGQKVDHCARHGEKLLLFCQEDGKVICWLCERSQEHRGHHTFLTEEVAREYQVKLQAALEMLRQKQQEAEELEADIREEKASWKTQIQYDKTNVLADFEQLRDILDWEESNELQNLEKEEEDILKSLTNSETEMVQQTQSLRELISDLEHRLQGSVMELLQGVDGVIKRTENVTLKKPETFPKNQRRVFRAPDLKGMLEVFRELTDVRRYWVDVTVAPNNISCAVISEDKRQVSSPKPQIIYGARGTLYTFQTFVNFNYCTGILGSQSITSGKHYWEVDVSKKTAWILGVCAGFQPDAMCNIEKNENYQPKYGYWVIGLEEGVKCSAFQDSSFHTPSVPFIVPLSVIICPDRVGVFLDYEACTVSFFNITNHGFLIYKFSHCSFSQPVFPYLNPRKCGVPMTLCSPSS [human TRIM5α, 330-340 = GARGTLYTFQTFV] | 0.0343 ± 0.048 |

same assay, conditions: library: insertions and deletions

| Sequence | enrichment |
| --- | --- |
| MASGILVNVKEEVTCPICLELLTQPLSLDCGHSFCQACLTANHKKSMLDKGESSCPVCRISYQPENIRPNRHVANIVEKLREVKLSPEGQKVDHCARHGEKLLLFCQEDGKVICWLCERSQEHRGHHTFLTEEVAREYQVKLQAALEMLRQKQQEAEELEADIREEKASWKTQIQYDKTNVLADFEQLRDILDWEESNELQNLEKEEEDILKSLTNSETEMVQQTQSLRELISDLEHRLQGSVMELLQGVDGVIKRTENVTLKKPETFPKNQRRVFRAPDLKGMLEVFRELTDVRRYWVDVTVAPNNISCAVISEDKRQVSSPKPQIIYGARGTRYQTFVNFNYCTGILGFNYCTGILGSQSITSGKHYWEVDVSKKTAWILGVCAGFQPDAMCNIEKNENYQPKYGYWVIGLEEGVKCSAFQDSSFHTPSVPFIVPLSVIICPDRVGVFLDYEACTVSFFNITNHGFLIYKFSHCSFSQPVFPYLNPRKCGVPMTLCSPSS [human TRIM5α, 9-codon duplication at 342] | 0.579 ± 0.82 |
| MASGILVNVKEEVTCPICLELLTQPLSLDCGHSFCQACLTANHKKSMLDKGESSCPVCRISYQPENIRPNRHVANIVEKLREVKLSPEGQKVDHCARHGEKLLLFCQEDGKVICWLCERSQEHRGHHTFLTEEVAREYQVKLQAALEMLRQKQQEAEELEADIREEKASWKTQIQYDKTNVLADFEQLRDILDWEESNELQNLEKEEEDILKSLTNSETEMVQQTQSLRELISDLEHRLQGSVMELLQGVDGVIKRTENVTLKKPETFPKNQRRVFRAPDLKGMLEVFRELTDVRRYWVDVTVAPNNISCAVISEDKRQVSSPKPQIIYGARGTRYQTFCTGILGSQSITSGKHYWEVDVSKKTAWILGVCAGFQPDAMCNIEKNENYQPKYGYWVIGLEEGVKCSAFQDSSFHTPSVPFIVPLSVIICPDRVGVFLDYEACTVSFFNITNHGFLIYKFSHCSFSQPVFPYLNPRKCGVPMTLCSPSS [human TRIM5α, 5-codon deletion at 340] | 1.82 ± 1 |
| MASGILVNVKEEVTCPICLELLTQPLSLDCGHSFCQACLTANHKKSMLDKGESSCPVCRISYQPENIRPNRHVANIVEKLREVKLSPEGQKVDHCARHGEKLLLFCQEDGKVICWLCERSQEHRGHHTFLTEEVAREYQVKLQAALEMLRQKQQEAEELEADIREEKASWKTQIQYDKTNVLADFEQLRDILDWEESNELQNLEKEEEDILKSLTNSETEMVQQTQSLRELISDLEHRLQGSVMELLQGVDGVIKRTENVTLKKPETFPKNQRRVFRAPDLKGMLEVFRELTDVRRYWVDVTVAPNNISCAVISEDKRQVSSPARGTRYQTFVNFNYCTGILGSQSITSGKHYWEVDVSKKTAWILGVCAGFQPDAMCNIEKNENYQPKYGYWVIGLEEGVKCSAFQDSSFHTPSVPFIVPLSVIICPDRVGVFLDYEACTVSFFNITNHGFLIYKFSHCSFSQPVFPYLNPRKCGVPMTLCSPSS [human TRIM5α, 7-codon deletion at 324] | 0.854 ± 0.25 |
